Test results: PubChem BioAssay AID686978 (National Center for Advancing Translational Sciences (NCATS), 2013)
“And” between values parts separate entries of the source, which are not always exact repeats. Equal values may be shown once. In all, about 420,000 compounds went through this assay and about 64,000 (15%) were called active. The inconclusive results got no clear call from the source; some entries with a clear call stand among them for comparison. Calls come from the whole dose curve; as a rule, active = well fitted inhibition curve with a large enough effect; inconclusive = small, poorly fitted or top-dose-only effect; inactive = flat fitted curve, though single readings scatter. Potencies of inconclusive entries are left out as doubtful fits.

Experiment: qHTS for Inhibitors of human tyrosyl-DNA phosphodiesterase 1 (TDP1): qHTS in cells in absence of CPT; note: nearly all actives have a fitted effect of over 55% in size
Details: DT40 Tdp1-/- hTDP1 cells, no CPT, ATP luminescence, 48 h; activity change, negative = growth inhibition: at 46.2 µM (top of the series) unless noted
Procedure, shortened: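 Camptothecin absent (DMSO only). Human TDP1-complemented DT40 knockout cells, 400 cells/well, 37 °C for minimum 48 hr; ATP measured via CellTiter-Glo, 30 min dark incubation, luminescence.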
% is set by controls: 0 for no effect and ±100 for the full control effect; potency is the fitted concentration of half-maximal effect; tags give direction and shape of the fitted curve.

| Compound | Potency | activity change, negative = growth inhibition |
| --- | --- | --- |
| COC(=O)C1(C(=O)OC)CCCCN(S(=O)(=O)c2ccc(C)cc2)CCC1 | active: 20.6 µM | – |
| O=C(NCCc1ccc(Cl)cc1)C1CCC(=O)N(C2CCCCCC2)C1 (centres undefined) | inconclusive [inhibitor, single point] | – |
| COc1ccc(CNC(=O)c2cc(-c3ccc(OC)c(OC)c3)on2)cc1 | inactive | – |
| CCOc1ccccc1C(=O)N[C@H](C(=O)Nc1nc2c(s1)CCCC2)C(C)C | active: 18.4 µM | – |
| CN(C)c1ccc(/C=C/c2ccc3ncccc3c2)cc1 | inconclusive [inhibitor, single point] | – |
| COc1ccccc1NC(=O)c1ccc(-c2ccccc2[N+](=O)[O-])o1 | inconclusive [inhibitor, single point] | – |
| O=C(N/C(=C/C=C/c1ccccc1)C(=O)N1CCCCC1)c1ccc([N+](=O)[O-])cc1 | inconclusive [inhibitor, single point] | – |
| Cc1ccc2cc(CN(Cc3ccco3)C(=O)c3cccs3)c(=O)[nH]c2c1 | active: 3.66 µM | – |
| Cn1cccc1/C=C1\SC(=Nc2ccc(O)cc2)NC1=O | active: 0.0231 µM | – |
| COc1cc(/C=C(\C#N)C(=O)NCc2ccccc2)ccc1OCc1ccc(C(=O)O)cc1 | inconclusive [inhibitor, single point] | – |
| Cc1cccn2cc(-c3ccc(Cl)cc3)nc12 | inconclusive [inhibitor, single point] | – |
| CN(C)c1ccc(CNC(=O)c2sc3ncccc3c2-n2cccc2)cc1 | active: 20.6 µM | – |
| Cc1ccccc1-n1cc(-c2ccc(Br)cc2)nc1SCC(N)=O | inconclusive [inhibitor, partial curve, poor fit] | – |
| COC(=O)c1sccc1NC(=O)NC1CCCCC1 | – | inconclusive: -33.7% [inhibitor] |
| CC1CCN(c2nc(-c3ccc(Br)cc3)nc3ccccc23)CC1 | inconclusive [inhibitor, single point] | – |
| O=C(CN1CCN(S(=O)(=O)c2ccc3c(c2)OCCCO3)CC1)N1CCc2ccccc21 | inconclusive [inhibitor, single point] | – |
| Cc1ccc(OCC(=O)Nc2ccccc2Sc2ccccc2)c([N+](=O)[O-])n1 | inconclusive [inhibitor, single point] | – |
| CCOC(=O)C1(CCOc2ccccc2)CCN(Cc2cccc(-n3cccn3)c2)CC1 | active: 16.4 µM | – |
| COc1cc(NC(=O)C/C(C)=N/NC(=O)c2ccccn2)c(OC)cc1Cl | inactive | – |
| Cc1cccc(NC(=O)C2CCN(S(=O)(=O)c3ccc4ccccc4c3)CC2)n1 | inconclusive [inhibitor, single point] | – |
| O=C(N/N=C\c1ccc(OC(=O)c2cccs2)cc1)c1ccc(Cl)cc1 | inconclusive [inhibitor, single point] | – |
| Cc1cc(C)c2c(=N)c3ccccc3n(CCCCCCCCn3c4ccccc4c(=N)c4c(C)cc(C)nc43)c2n1 | inconclusive [inhibitor, single point] | – |
| CCCOC(=O)c1cc(-c2ccc(C=O)o2)ccc1Cl | inconclusive [inhibitor, partial curve] | – |

| Compound | Potency | activity change, negative = growth inhibition |
| --- | --- | --- |
| O=C1COc2ccc(C(=O)COc3ccc([N+](=O)[O-])cc3)cc2N1 | inactive | – |
| CCN(c1ncnc2c1cnn2-c1cccc(Cl)c1)C1CCCCC1 | inactive | – |
| Cc1ccc(-c2cc(C(F)(F)F)c(C#N)c(SCC(=O)Nc3ccccc3F)n2)cc1 | inactive | – |
| COc1cc(Cl)c(NS(=O)(=O)c2ccc(-c3coc(C)n3)cc2)c(OC)c1 | active: 4.11 µM | – |
| CC1CCCCN1CCCNC(=O)Cn1ncc2c3ccccc3n(Cc3ccccc3F)c2c1=O (centres undefined) | active: 18.4 µM | – |
| CCOc1ccc(NC(=O)CN(C)C(=O)c2ccccc2OCc2cccc(C)c2)cc1OCC | inconclusive [inhibitor, single point] | – |
| CCS(=O)(=O)c1ccc(-c2cccc(NC(=O)COc3ccccc3)c2)nn1 | inconclusive [inhibitor, full curve, poor fit] | – |
| CN(CC(=O)Nc1c(Cl)cccc1Cl)C(=O)c1cccn1C | inactive | – |
| COc1cc(C(=O)Nc2nnc(C)s2)c([N+](=O)[O-])cc1OC | inactive | – |
| Cc1ccc2cc(C(c3nnnn3C3CCCC3)N(Cc3ccco3)Cc3cccs3)c(=O)[nH]c2c1 (centres undefined) | inconclusive [inhibitor, single point] | – |
| Cn1nnc(NCc2cc(Br)ccc2OCc2ccccc2F)n1 | inactive | – |
| O=C(c1ccccc1-c1ncc[nH]1)N1CCc2c([nH]c3ccccc23)C1c1ccccn1 (centres undefined) | inconclusive [inhibitor, single point] | – |
| O=C(O)CC/C(=N/NC(=O)CNC(=O)c1ccc2c(c1)OCCO2)c1ccccc1 | inactive | – |
| COc1ccc(C2C(=O)N(C3CCCCC3)CC(=O)N2C2CCCCC2)cc1 (centres undefined) | inconclusive [inhibitor, partial curve] | – |
| O=S(=O)(Nc1ccc(-c2nnc(SCc3ccc(Cl)cc3)o2)cc1)c1ccccc1 | inconclusive [inhibitor, single point] | – |
| CC(=O)Nc1ccc(S(=O)(=O)NCc2cccnc2)cc1 | inconclusive [inhibitor, single point] | – |
| O=C(CSc1nc2ccccc2s1)N1c2ccccc2Sc2ccccc21 | inconclusive [inhibitor, single point] | – |
| CS(=O)(=O)N(CC(=O)N1CCOCC1)c1ccc2c3c(cccc13)CC2 | inactive | – |
| Cc1ccc(C(C)NC(=O)c2ccncc2)c(C)c1 (centres undefined) | inconclusive [inhibitor, partial curve, poor fit] | – |
| COC(=O)Nc1ccc2c(c1)Nc1ccccc1CC2 | inconclusive [inhibitor, single point] | – |
| COc1cccc(CNC(=O)CN2C(=O)CSc3ccc(S(=O)(=O)N4CCCC4)cc32)c1 | inconclusive [inhibitor, single point] | – |
| COc1ccc(NC(=O)CSc2nccn2Cc2ccccc2)cc1 | inconclusive [inhibitor, partial curve, poor fit] | – |
| CSc1nc(N)n2nccc2n1 | inactive | – |

| Compound | Potency | activity change, negative = growth inhibition |
| --- | --- | --- |
| CC/C(=N\NC(=O)OC)c1ccc(OC(F)F)cc1 | inactive | – |
| CCOC(=O)Cc1csc(NC(=O)CSc2nncn2C)n1 | – | inconclusive: -3.8% [inhibitor] |
| Cc1ccc(C2(C)NC(=O)N(CCOc3ccccc3)C2=O)cc1 (centres undefined) | – | inconclusive: -35.1% [inhibitor] |
| CCN(Cc1ccccc1)C(=O)C(CC(C)C)NS(=O)(=O)c1ccc2c(c1)CCN2C(C)=O (centres undefined) | inconclusive [inhibitor, single point] | – |
| Cc1[nH]n(-c2ccccc2)c(=O)c1C=Nc1ccc(S(=O)(=O)N(C)C)cc1 | inconclusive [inhibitor, full curve] | – |
| Cc1ccc(C2=C/C(=C/c3cccnc3)C(=O)O2)c(C)c1 | inconclusive [inhibitor, single point] | – |
| Cc1ccc(S(=O)(=O)Cn2nnnc2C(CC(C)C)N2CCC(C(N)=O)CC2)cc1 (centres undefined) | inactive | – |
| COc1ccc(S(=O)(=O)n2c([N+](=O)[O-])cnc2C)c(C)c1C | inactive | – |
| Cc1cccc(N2CCN(C(=O)c3nn(C)c4c3CS(=O)(=O)c3ccccc3-4)CC2C)c1 (centres undefined) | active: 18.4 µM | – |
| CCOc1ccc(NC(=O)C23CC4CC(C2)CC(c2ccccc2)(C4)C3)cc1 | inconclusive [inhibitor, full curve, poor fit] | – |
| CCOC(=O)c1sc(=NC(=O)c2ccc(OC)c(OC)c2)n(C)c1C | inactive | – |
| C#CCn1c2ccccc2c(=O)n1CCOc1ccccc1OC | inconclusive [inhibitor, single point] | – |
| COC(=O)[C@@]12C[C@@H](CC(=O)NCc3cccc4ccccc34)C(=O)N(Cc3ccco3)C1=CCC(C)(C)C2 | inconclusive [inhibitor, single point] | – |
| Cc1cc([N+](=O)[O-])nn1CCCC(=O)Nc1cc(Oc2ccc(F)cc2)cc([N+](=O)[O-])c1 | inconclusive [inhibitor, single point] | – |
| CC(C)c1ccc(OCC(=O)NNC(=O)c2cnccn2)cc1 | inconclusive [inhibitor, single point] | – |
| COC(=O)C1=C(N)Oc2cc(C)[nH]c(=O)c2C1c1ccc(Cl)cc1 (centres undefined) | inconclusive [inhibitor, single point] | – |
| CCCNC(=O)C1(C)CCCN(C(=O)c2ccc(F)c(Cl)c2)C1 (centres undefined) | inactive | – |
| O=C(CCC(=O)N1CCOc2ccccc21)NCCCN1CCN(Cc2ccccc2)CC1 | inconclusive [inhibitor, single point] | – |
| CN1CCN(c2ncc3nc(-c4ccc(Cl)cc4)c(=O)n(-c4ccccc4)c3n2)CC1 | inconclusive [inhibitor, single point] | – |
| C=CCOc1cccc(C(=O)N2CCCC(Nc3ccc4c(c3)OCCO4)C2)c1 (centres undefined) | inactive | – |
| Nc1nc2c(ncn2[C@H]2C[C@H](O)[C@@H](CO)O2)c(=O)[nH]1 | active: 3.98 µM and active: 2.06 µM | – |
| CCOC(=O)N(C)[C@H]1C[C@H]2c3[nH]c4ccccc4c3CCN2C[C@H]1[C@H](C)O | inconclusive [inhibitor, single point] | – |
| Cc1ccc(COC[C@H](CC(C)C)N2CCN(C(=O)c3cccc(C(F)(F)F)c3)CCC2=O)cc1 | inconclusive [inhibitor, single point] | – |
